According to the antibiotic and cytotoxicity screens of Wong et al. (2023):
The other results are listed elsewhere or left out.

Each compound was assayed on S. aureus RN4220 (assay: growth inhibition call (relative growth <= 0.2)). Conditions: 50 µM.

Growth inhibition call, inactive:
Cc1noc(C)c1NC(=O)Nc1ccc2c(c1)C(=O)N([C@H](C)CO)C[C@H](C)[C@H](CN(C)C(=O)NC1CCCCC1)OCCCC[C@@H](C)O2
COc1ccc(S(=O)(=O)N2C[C@@H](O)COC[C@H]3O[C@H](CC(=O)NCc4ccc(Cl)c(Cl)c4)CC[C@@H]32)cc1
C[C@H](CO)N1C[C@H](C)[C@@H](CN(C)C(=O)c2ccc3c(c2)OCO3)Oc2cc(-c3cncnc3)ccc2S1(=O)=O
COc1ccc(S(=O)(=O)Nc2ccc3c(c2)CC(=O)N([C@H](C)CO)C[C@H](C)[C@H](CN(C)C)O3)cc1
CC(C)CS(=O)(=O)C1CN(S(C)(=O)=O)C1
Cc1ccc(S(=O)(=O)N(C)C[C@H]2OCCCC[C@@H](C)Oc3ccc(NC(=O)Nc4c(C)noc4C)cc3C(=O)N([C@H](C)CO)C[C@@H]2C)cc1
C[C@@H]1CN([C@H](C)CO)C(=O)c2cc(NC(=O)Nc3cccc4ccccc34)ccc2O[C@H]1CN(C)C(=O)Nc1ccccc1
Cc1cc(C(=O)Nc2cccc3c2O[C@H](CN(C)Cc2ccncc2)[C@H](C)CN([C@H](C)CO)C3=O)n(C)n1
COc1ccc(S(=O)(=O)Nc2cccc3c2O[C@H](CN(C)S(=O)(=O)c2ccccc2)[C@H](C)CN([C@H](C)CO)C3=O)cc1
O=c1cc(CN2CCCC2)nc2n1CCCNC2
C[C@@H]1CN([C@@H](C)CO)C(=O)c2cc(NS(=O)(=O)c3ccccc3)ccc2O[C@@H]1CN(C)S(=O)(=O)c1ccccc1
C[C@@H]1CN([C@H](C)CO)C(=O)Cc2cc(NS(=O)(=O)c3ccccc3)ccc2O[C@H]1CN(C)S(=O)(=O)c1cn(C)cn1
COc1ccc(S(=O)(=O)N(C)C[C@@H]2Oc3c(NS(=O)(=O)c4ccccc4)cccc3C(=O)N([C@@H](C)CO)C[C@@H]2C)cc1
C[C@H]1CN([C@@H](C)CO)C(=O)Cc2cc(NC(=O)Nc3ccc(C(F)(F)F)cc3)ccc2O[C@H]1CN(C)C(=O)Nc1ccc(F)cc1
C[C@@H]1CN([C@@H](C)CO)C(=O)c2cc(NS(=O)(=O)c3ccc(F)cc3)ccc2O[C@@H](C)CCCCO[C@@H]1CN(C)C(=O)Nc1ccc(C(F)(F)F)cc1
COc1ccc(NC(=O)Nc2ccc3c(c2)C(=O)N([C@@H](C)CO)C[C@H](C)[C@H](CN(C)C(=O)CCC(F)(F)F)OCCCC[C@@H](C)O3)cc1
COCC#Cc1cnc2c(c1)C(=O)N([C@H](C)CO)C[C@@H](C)[C@@H](CN(C)S(=O)(=O)c1cn(C)cn1)O2
C[C@H]1CN([C@@H](C)CO)C(=O)c2cc(NC(=O)Nc3cccc4ccccc34)ccc2O[C@@H]1CN(C)Cc1ccc(-c2ccccc2)cc1
Cc1ccc(S(=O)(=O)Nc2ccc3c(c2)CC(=O)N([C@@H](C)CO)C[C@H](C)[C@H](CN(C)C(=O)NC(C)C)O3)cc1
O=C(c1ccccc1Cl)n1c2ccccc2c2ccccc21
COc1ccc(NC(=O)Nc2cccc3c2O[C@@H](CN(C)S(=O)(=O)c2cn(C)cn2)[C@@H](C)CN([C@@H](C)CO)C3=O)cc1
Nc1nc(=O)c2nc(Br)n([C@H]3O[C@H]4COP(=O)(O)O[C@@H]4[C@@H]3O)c2[nH]1
CC(C)NC(=O)Nc1ccc2c(c1)CC(=O)N([C@H](C)CO)C[C@H](C)[C@H](CN(C)S(=O)(=O)c1ccc(Cl)cc1)O2
C[C@@H]1CN([C@@H](C)CO)C(=O)c2cc(NS(=O)(=O)c3ccc(F)cc3)ccc2O[C@H]1CN(C)S(=O)(=O)c1ccccc1
C[C@H]1CCCCO[C@H](CN(C)Cc2ccccc2)[C@@H](C)CN([C@@H](C)CO)C(=O)c2cc(NS(=O)(=O)c3ccc(F)cc3)ccc2O1
O=c1cc(CN2CC[C@H](N3CCOCC3)[C@H](CCCO)C2)nc2c(O)cccn12
COC(=O)c1sc2ncn(N)c(=O)c2c1C
C[C@H]1CN([C@@H](C)CO)C(=O)c2cc(NC(=O)Nc3cccc4ccccc34)ccc2O[C@H]1CN(C)C(=O)Nc1ccc(C(F)(F)F)cc1
CN(C)CCC=C1c2ccccc2COc2ccccc21.Cl
C[C@@H]1CN([C@@H](C)CO)C(=O)c2cc(C#CCN(C)C)cnc2O[C@@H]1CN(C)C(=O)Nc1ccccc1F
